The results in this text go back to US7259004B1, “Endophytic streptomycetes from higher plants with biological activity” (Montana State University, priority 2002, dated 2007).

Test systems include Bacillus anthracis 14578; Bacillus anthracis 28; Bacillus anthracis 62-8.
Common to all, as to type: cell-based
Holding throughout (conditions): Table 15

Experiment [1] concerns Bacillus anthracis 40/BA 100.

Take kakadumycin A: the “MIC Bacillus anthracis 14578” value in the experiment with Bacillus anthracis 14578 is given as 0.55 micrograms/ml. Moreover, the “MIC Bacillus anthracis 28” value against Bacillus anthracis 28 is 0.43 micrograms/ml. Further, the “MIC Bacillus anthracis 62-8” value against Bacillus anthracis 62-8 is on record as 0.41 micrograms/ml. Further, in experiment [1], the “MIC Bacillus anthracis 40/BA 100” value came out at 0.3 micrograms/ml.
